# According to article PMC10150588:
# Legend:
# [1] = target: TP (MLV integrase C-terminal tail peptide) (Moloney murine leukemia virus); test: ITC
# [2] = target: TP (MLV integrase C-terminal tail peptide) (Moloney murine leukemia virus); test: ITC; remark: listed apart in the source
substance,measurement,setting,value
BRD3 ET domain […] (sequence left out),Kd,[1],90 nM
same,Kd,[2],13 nM

# Where two headings read alike, the source gives them in different places.
